Reference: publication PMC4336329 (PLoS ONE, 2015)
Out of some 310,000 compounds screened, about 2,200 (0.71%) showed an effect of 50% or more. Effects have a minus sign here. The list shows a part of the results. Where a SMILES comes first, the peptide text is derived from it. [ ]: non-standard residue; d: D form. The star is where a group is joined. ξ: configuration not given here. ξF = NC(Cc1ccccc1)C(=O)O; Cbz = O=C(OCc1ccccc1)*

target: human ether-à-go-go-related gene (hERG) potassium channel (human, UniProt Q12809); assay: primary screen, population patch clamp on CHO cells stably expressing hERG
Sequence (Q12809 whole entry, looked up): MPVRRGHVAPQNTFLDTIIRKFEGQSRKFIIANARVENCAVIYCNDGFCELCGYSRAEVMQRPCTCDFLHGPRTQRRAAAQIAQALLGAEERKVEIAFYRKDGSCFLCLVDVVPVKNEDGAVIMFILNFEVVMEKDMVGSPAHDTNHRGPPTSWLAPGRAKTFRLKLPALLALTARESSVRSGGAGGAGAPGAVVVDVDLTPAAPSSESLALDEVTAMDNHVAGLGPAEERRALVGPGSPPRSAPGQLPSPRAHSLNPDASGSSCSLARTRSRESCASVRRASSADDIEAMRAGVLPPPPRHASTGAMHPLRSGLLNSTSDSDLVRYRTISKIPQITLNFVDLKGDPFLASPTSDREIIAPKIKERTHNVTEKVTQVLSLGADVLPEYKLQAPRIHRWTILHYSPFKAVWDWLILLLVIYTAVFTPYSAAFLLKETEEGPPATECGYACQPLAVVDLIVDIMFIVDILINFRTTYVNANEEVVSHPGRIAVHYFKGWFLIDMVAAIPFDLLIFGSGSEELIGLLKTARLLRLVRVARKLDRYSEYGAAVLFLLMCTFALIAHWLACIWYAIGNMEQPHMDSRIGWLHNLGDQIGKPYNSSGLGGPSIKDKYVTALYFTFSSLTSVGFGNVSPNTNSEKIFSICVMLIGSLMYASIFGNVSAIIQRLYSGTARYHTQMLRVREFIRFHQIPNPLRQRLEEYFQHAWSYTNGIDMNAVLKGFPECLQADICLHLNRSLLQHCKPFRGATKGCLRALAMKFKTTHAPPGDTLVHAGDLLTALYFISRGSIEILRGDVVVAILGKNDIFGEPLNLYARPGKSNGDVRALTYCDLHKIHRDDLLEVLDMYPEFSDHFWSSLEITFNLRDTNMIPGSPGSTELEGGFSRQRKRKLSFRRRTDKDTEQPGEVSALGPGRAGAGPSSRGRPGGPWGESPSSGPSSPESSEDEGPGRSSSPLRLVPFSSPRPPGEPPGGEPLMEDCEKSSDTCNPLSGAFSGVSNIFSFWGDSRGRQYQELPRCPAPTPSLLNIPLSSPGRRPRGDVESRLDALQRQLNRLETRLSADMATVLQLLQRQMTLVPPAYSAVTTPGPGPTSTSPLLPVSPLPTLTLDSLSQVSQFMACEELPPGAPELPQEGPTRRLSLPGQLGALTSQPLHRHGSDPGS

| SMILES | hERG current change (%, negative = inhibition) at 1uM [%] |
| --- | --- |
| Cc1ccc2nc(SCc3nnc(-c4ccccc4Br)o3)[nH]c2c1 | 9.48 |
| Cc1ccc(NC(=O)CSc2ncccn2)cc1F | 3.2 |
| CC(C)(C)c1ccc(C(=O)NC(=S)NCC2CCCO2)cc1 (stereo not shown) | 1.27 |
| COC(=O)c1ccc(COC(=O)c2ccccn2)cc1 | 12.3 |
| Cc1cccc(-c2csc(N)c2C(=O)OC(C)C)c1 | 5.18 |
| Cc1ccc(NC(=O)CCN2CCCCC2)cc1.Cl | 8.05 |
| O=[N+]([O-])c1cc2c(cc1CN1CCN(c3ccccc3)CC1)OCO2 | 12.1 |
| Cc1ccccc1OCC(=O)NC(=S)Nc1cccc2cc(O)ccc12 | 12 |
| CCOC(=O)N1CCN(C(=O)C(CC(C)C)NC(=O)C2CCCCC2)CC1 (stereo not shown) | 14.2 |
| CS(=O)(=O)c1ccc(Cl)c(NC(=O)COC(=O)CNC(=O)c2ccc3ccccc3c2)c1 | 4.7 |
| COc1ccc(N2C(=O)CSC2c2cccc(OC)c2OC)cc1 (stereo not shown) | 12.7 |
| COc1ccccc1N(C(=O)CNC(=O)c1ccco1)C(C(=O)NC1CCCC1)c1ccncc1 (stereo not shown) | 10.7 |
| Cc1ccc(O)c(N=Cc2sc3ccccc3c2Cl)c1 | 11.3 |
| CCN(CC)C(=O)CC1(c2ccccc2OC)CCOC(C(C)C)C1 (stereo not shown) | 2.22 |
| CCC(C)(C)NC(=O)C(c1ccc(OC)cc1)N(Cc1ccccc1)C(=O)CCC(=O)Nc1cc(C)on1 (stereo not shown) | 8.74 |
| Cc1cccc(NC(=O)c2cc3c(=O)n4ccccc4nc3s2)c1 | 11.5 |
| O=C(Cc1ccccc1)Nc1ccc(NC(=O)c2cccs2)cc1Cl | -14.9 |
| CC(=O)NC(NC(=S)N1CCCCCC1)C(Cl)(Cl)Cl (stereo not shown) | 10.1 |
| COC(=O)c1sccc1NC(=O)COc1ccc(Cl)cc1 | -1.18 |
| Cc1cc(C)n(CC(=O)N2c3ccccc3Sc3ccccc32)n1 | 4.34 |
| C#CCOCCOCCOCCNc1nc(N2CCN(C(=O)[C@H](CCCC[NH3+])n3cc(CCCC)nn3)CC2)nc(N2CCN(C(=O)[C@H](CCCC[NH3+])n3cc(CCCC)nn3)CC2)n1.[Cl-] | 17 |
| CC(NC(=O)c1cc(S(=O)(=O)N2CCCC2)cn1C)c1ccccc1 (stereo not shown) | 11 |

| SMILES | hERG current change (%, negative = inhibition) at 1uM [%] |
| --- | --- |
| Cc1ccc(CNC(=O)C2CCN(S(=O)(=O)N3CCC4(CC3)OCCO4)CC2)cc1 | 1.7 |
| O=c1cc(-c2cccc3ccccc23)[nH][nH]1 | 13.5 |
| CCC(C)C(=O)Nn1c(C2CC2)nc2cc(OC)c(OC)cc2c1=O (stereo not shown) | 16.3 |
| CCCCOP(=O)(OCCCC)C(O)c1ccc(N(C)C)cc1 (stereo not shown) | 12.5 |
| CC(=O)Nc1ccc(NC(=O)c2sc3nc4n(c(=O)c3c2C)CCCCC4)cc1 | -2.1 |
| Cc1nc2ccccc2n1CCC(=O)O.Cl | -13.9 |
| Cc1ccccc1-n1nc2c(c1NC(=O)c1cc3ccccc3o1)CS(=O)(=O)C2 | 3.47 |
| CCc1ccccc1NC(=O)C1CCCN(c2nccc(C)n2)C1 (stereo not shown) | 15.6 |
| O=C(O)c1ccc(NC2=C(N3CCOCC3)C(=O)c3ccccc3C2=O)cc1 | 11.2 |
| Cc1cc(-c2ccccc2)nnc1NCCN1CCOCC1.Cl | -0.953 |
| O=C(Cc1ccccc1)Nc1ccc(N2CCCCC2)cc1 | 2.59 |
| Cc1cc(=O)[nH]c(SCC(=O)Nc2ccc3c(c2)OCCO3)n1 | 9.85 |
| CCOC(=O)C1CCN(C(=O)c2cc(COc3ccc(F)cc3F)on2)CC1 | 3.13 |
| COC(=O)C1=C(C)N(Cc2ccc(C)cc2)C(=O)C1 | 6.87 |
| CCc1ccc(CN(C)C(=O)C2CCC(=O)N(Cc3cccc(OC)c3)C2)nc1 (stereo not shown) | 4.11 |
| O=S(=O)(CCSc1ccc(C(F)(F)F)cn1)c1ccc(Cl)cc1 | 11.7 |
| Cc1cc(O)cc(O[C@H]2OC(CO)[C@H](O)[C@@H](O)[C@H]2O)c1 (stereo partly shown) | 10.4 |
| Cc1ccc(NC(=O)/C=C/c2ccc([N+](=O)[O-])s2)cc1 | 13.2 |
| O=c1c2ccccc2nc2n1CCc1c-2[nH]c2ccccc12 | 12.8 |
| CC(=O)SCC(Cc1ccccc1)C(=O)NCC(=O)OCc1ccccc1 (stereo not shown) | 10.6 |
| C/C(=C\C(=S)Nc1ccccc1)Nc1cccc2ccccc12 | 15.3 |
| Cc1ccc(C(=O)NC(=S)NCC2CCCO2)cc1Br (stereo not shown) | 10.5 |

| SMILES | hERG current change (%, negative = inhibition) at 1uM [%] |
| --- | --- |
| CC1CN(C(=O)c2cccc(C(=O)N3CC(C)OC(C)C3)c2)CC(C)O1 (stereo not shown) | 17.3 |
| CCCNC(=O)N[C@@H](Cc1ccccc1)C(=O)OC | 8.61 |
| CN(C)C(=S)Nc1cccc(-c2n[nH]c(=S)o2)c1 | 15.3 |
| CCS(=O)(=O)Nc1ccc(C2=NN(C(=O)c3ccccc3)C(c3cccs3)C2)cc1 (stereo not shown) | 11.4 |
| Cc1ccsc1-c1ccnc(-n2cccc2)n1 | 13.1 |
| Cc1cccc(NC(=O)c2cc([N+](=O)[O-])ccc2NC2CCCCC2)c1 | 11.6 |
| CC(C)[C@H](NC(=O)OCc1ccccc1)C(=O)NC(C=O)Cc1ccccc1 (stereo partly drawn) (Cbz-Val-[ξF]-aldehyde) | 12 |
| Cc1ccc(CCNC(=O)C2CCN(S(=O)(=O)c3cccc4nsnc34)CC2)cc1 | 12.8 |
| Cc1cc(Cl)ccc1OC(C)C(=O)NN1C(=O)c2ccccc2C1=O (stereo not shown) | 16.5 |
| COc1ccc(CNC(=O)CN(C(=O)c2csnn2)c2cccc(C(C)=O)c2)cc1 | 11.9 |
| Cc1c(C#N)c(NC(=O)C(C)C)n(Cc2ccccc2)c1C | 9.94 |
| CCN(C(=O)Cn1c([N+](=O)[O-])cnc1C)c1ccccc1 | 14.2 |
| CCOC(=O)Cc1nc2ccccc2n(CC#N)c1=O | 11.1 |
| O=C(NCCCn1ccnc1)c1ccc(S(=O)(=O)Nc2ccccc2)cc1 | 5.95 |
| O=C(N/C(=C/c1ccc([N+](=O)[O-])cc1)C(=O)N1CCOCC1)c1ccco1 | -34.6 |
| Cc1cc(C)nc(NC(=O)C(C)N2C(=O)c3ccccc3C2=O)n1 (stereo not shown) | -18.7 |
| CC(CN(C)C)CN1c2ccccc2CCc2ccccc21.O=C(O)/C=C\C(=O)O (stereo not shown) | -12.5 |
| CS(=O)(=O)N(Cc1ccccc1)c1ccc(C(=O)Nc2ccccc2Sc2ccccc2)cc1 | -1.7 |
| CCOc1ccc(NC(=O)CN2C(=O)C3CC=CCC3C2=O)cc1 (stereo not shown) | 8.69 |
| COc1cccc(-n2cc(C(=O)O)c3ccccc3c2=O)c1 | 8.59 |
| CCc1ccccc1NC(=O)CSc1nnc(Cn2cnc3ccccc32)o1 | 11.8 |
| O=C(NC1CC2CCC1C2)C1CCN(S(=O)(=O)c2ccc(-c3nn[nH]n3)cc2)CC1 (stereo not shown) | 16.3 |

| SMILES | hERG current change (%, negative = inhibition) at 1uM [%] |
| --- | --- |
| COc1ccc(C2=NN(C(=O)CSc3nc4ncc(Cl)cc4[nH]3)C(c3ccco3)C2)cc1 (stereo not shown) | 8.87 |
| Cc1cc(NC(=O)CSc2nnc(Cc3cccn3C)n2CCc2ccccc2)no1 | 3.14 |
| S=C1NCN(C2CCCCC2)CN1Cc1ccccc1 | 7.51 |
| CC(=O)N1c2ccc(S(=O)(=O)N3CCCC(C(=O)NCc4ccc(Cl)cc4)C3)cc2CC1C (stereo not shown) | 15.5 |
| COc1ccc(NC(=O)CCc2nnc3ccc(N4CCC(C)CC4)nn23)cc1OC | 13.7 |
| Cc1ccc(OCc2cc(C(=O)N(C)CCc3ccccc3)no2)cc1C | 7.65 |
| Cc1cc(O)c(C(C)C)cc1C1(c2cc(C(C)C)c(O)cc2C)OC(=O)c2ccccc21 | 15 |
| O=C(Nc1ccccc1)N1CCN2C(=O)c3ccccc3C12c1ccccc1 (stereo not shown) | 15.2 |
| Cc1cc(C)n2nc(C(=O)N/N=C/c3ccc(O)cc3)nc2n1 | 11.1 |
| Cc1nn(C2CCS(=O)(=O)C2)c(Cl)c1/C=C/C(=O)OCC(=O)Nc1ccc2c(c1)OCO2 (stereo not shown) | 2.65 |
| CC(C)COC(=O)n1c(=O)oc2ccc(S(=O)(=O)N3CCCCC3)cc21 | 0.0001 |
| CC1CCN(C(=O)Cn2ncc3c([nH]c4ccccc43)c2=O)CC1 | 7.02 |
| Cc1c(Cl)cccc1NC(=O)CCNC(=O)N1CC(=O)Nc2ccccc21 | 14.1 |
| Cc1ccc(-n2ncc3c(=O)n(CC(=O)NC4CCCCC4)cnc32)cc1 | 19.8 |
| Cc1ccc(CSCC(=O)NCc2ccc(F)cc2)cc1 | 9.12 |
| Cc1cccc(/C=N/NC(=O)CNc2cccc3ccccc23)n1 | 11.6 |
| CC(=O)Cc1nsc(Nc2ccc3c(c2)OCCO3)n1 | 11.3 |
| NC(=O)CCn1nc(-c2ccccc2)c2ccccc2c1=O | 10.9 |
| Cc1ccc(C(=O)C(C)OC(=O)CCN2C(=O)C3C4C=CC(C5CC45)C3C2=O)cc1 (stereo not shown) | 1.22 |
| COc1cc(C(=O)NCc2ccc(-c3nc4ccccc4o3)cc2)cc(OC)c1OC | 17.9 |
| O=C(CSCc1c(F)cccc1Cl)NNC(=S)NC1CCCCC1 | 18.4 |
| O=C(CSCc1nc2scc(-c3cccs3)c2c(=O)[nH]1)Nc1ccccn1 | 13.1 |
